The full ranking holds about 18,000 sequences; the median of “TetR repression strength (sort-seq, GFP reporter)” is about 0.23, and the highest 2% start at about 0.68. Some of the results follow.
Molecular target: TetR (class B, Tn10) (UniProt P04483)
Assay: TetR repression strength (sort-seq, GFP reporter) (relative to tetO2 = 1); higher = stronger repression
Settings: E. coli
Summary of the method: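 Three independent transformations of E. coli SIG10-MAX were made with a low-copy plasmid library randomizing eight operator positions between a constitutive promoter and sfGFP, with constitutive TetR. Following 5 h at 37 °C in LB plus 50 µg/mL chloramphenicol, 10^6 cells went through FACS into 13 fluorescence bins, and each bin was sequenced by Illumina. Repression strength was defined as the top bin index plus one minus the read-weighted mean bin, divided by the unaltered operator's value. Averages included only members reaching ≥30 reads in all replicates with a CV ≤0.5.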

UniProt P04483, sequence (P04483 whole entry): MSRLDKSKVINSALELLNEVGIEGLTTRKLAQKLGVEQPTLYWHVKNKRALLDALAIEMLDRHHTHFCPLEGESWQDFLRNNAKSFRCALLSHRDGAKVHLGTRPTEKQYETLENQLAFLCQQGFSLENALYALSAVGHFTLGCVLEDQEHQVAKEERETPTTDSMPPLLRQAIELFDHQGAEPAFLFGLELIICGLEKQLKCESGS

Sequence	TetR repression strength
TCCCGCATAGTTGATGAGA	0.311
TCCCTTACAGTTGCTGAGA	0.244
TCCCCATGAGTTAGAGAGA	0.196
TCCCGGCCAGTTGTCGAGA	0.231
TCCCATGTAGTCCGTGAGA	0.163
TCCCTAAAAGTTAAAGAGA	0.261
TCCCGCTTAGTCAGCGAGA	0.188
TCCCAGTAAGTGAGAGAGA	0.353
TCCCGCAAAGTCGCAGAGA	0.0535
TCCCCCCAAGTCGGGGAGA	0.0506
TCCCACATAGTTAATGAGA	0.175
TCCCCATTAGTATATGAGA	0.301
TCCCGCCCAGTATCCGAGA	0.289
TCCCAAGGAGTGTCCGAGA	0.575
TCCCGAGTAGTGAAAGAGA	0.337
TCCCTCCCAGTACTTGAGA	0.306
TCCCACAGAGTGGATGAGA	0.0957
TCCCTTGAAGTGGCGGAGA	0.14
TCCCAACAAGTGCCGGAGA	0.234
TCCCGGCGAGTGGTTGAGA	0.34
TCCCTGACAGTACATGAGA	0.371
TCCCGCTGAGTGACGGAGA	0.0764
TCCCAGATAGTGGCCGAGA	0.00691
TCCCGGGGAGTAACAGAGA	0.263
TCCCGGAAAGTGTGGGAGA	0.0601
TCCCGTTGAGTTAGGGAGA	0.218

Sequence	TetR repression strength
TCCCAGGGAGTAAGTGAGA	0.126
TCCCTAAGAGTCGTTGAGA	0.393
TCCCTTATAGTACAGGAGA	0.103
TCCCTGGCAGTGTCAGAGA	0.272
TCCCCCGAAGTGGCCGAGA	0.112
TCCCCTAGAGTGGTGGAGA	0.247
TCCCTCATAGTATTGGAGA	0.22
TCCCCCGTAGTGAACGAGA	0.242
TCCCTGTTAGTCTGGGAGA	0.218
TCCCTGTCAGTGAAAGAGA	0.632
TCCCGCTAAGTCGGCGAGA	0.245
TCCCGGGAAGTTTAGGAGA	0.0456
TCCCGCGCAGTTTGGGAGA	0.251
TCCCCATGAGTGGGGGAGA	0.098
TCCCGTTAAGTGATAGAGA	0.406
TCCCCCCGAGTGGTGGAGA	0.203
TCCCTCGGAGTCACCGAGA	0.331
TCCCTTGAAGTCGGAGAGA	0.0724
TCCCGTGAAGTGAAAGAGA	0.104
TCCCAGGAAGTGGGAGAGA	0.109
TCCCATGGAGTTGGGGAGA	0.16
TCCCTTCTAGTAGGTGAGA	0.299
TCCCGTGTAGTGTTTGAGA	0.18
TCCCTCGGAGTGCGAGAGA	0.315
TCCCTGCCAGTGTTAGAGA	0.429
TCCCTTAAAGTTGGTGAGA	0.429

Sequence	TetR repression strength
TCCCGCGCAGTGCGGGAGA	0.578
TCCCAGAAAGTACATGAGA	0.351
TCCCGGTTAGTGCCAGAGA	0.061
TCCCGTCAAGTAGGGGAGA	0.0741
TCCCGCCAAGTACGCGAGA	0.275
TCCCGAATAGTTTTCGAGA	0.415
TCCCAGTGAGTGTCTGAGA	0.231
TCCCTGTTAGTCTTGGAGA	0.481
TCCCGCCTAGTGCAAGAGA	0.393
TCCCTAATAGTGCCCGAGA	0.138
TCCCATGGAGTTTGGGAGA	0.201
TCCCTGTCAGTAGCGGAGA	0.0338
TCCCATGCAGTCCTAGAGA	0.417
TCCCTCAAAGTAGCCGAGA	0.231
TCCCTGGCAGTGAATGAGA	0.184
TCCCGGAGAGTGCGTGAGA	0.177
TCCCTTTCAGTTTCTGAGA	0.1
TCCCTTTTAGTTTGGGAGA	0.451
TCCCTAGTAGTTCTCGAGA	0.282
TCCCATGTAGTTTGAGAGA	0.222
TCCCGTCCAGTTGACGAGA	0.00351
TCCCTACAAGTTTAGGAGA	0.0691
TCCCGGAAAGTCTGGGAGA	0.153
TCCCTGAGAGTGAGAGAGA	0.123
TCCCGGGAAGTCAGGGAGA	0.367
TCCCAATGAGTCTTAGAGA	0.211

Sequence	TetR repression strength
TCCCCGCCAGTGCGAGAGA	0.0262
TCCCGCTAAGTTGACGAGA	0.425
TCCCGCTAAGTGGACGAGA	0.209
TCCCTATTAGTAGATGAGA	0.247
TCCCAGAGAGTTTGCGAGA	0.2
TCCCAGGGAGTCCGTGAGA	0.15
TCCCTCGTAGTTTTGGAGA	0.238
TCCCTGAAAGTGAAGGAGA	0.331
TCCCGCAGAGTCACAGAGA	0.277
TCCCGAGCAGTACAGGAGA	0.0626
TCCCCGAAAGTTTTAGAGA	0.262
TCCCGGACAGTCGAAGAGA	0.0697
TCCCAAACAGTCAACGAGA	0.272
TCCCCTTCAGTAGGGGAGA	0.372
TCCCGAGGAGTTCGGGAGA	0.116
TCCCGCGCAGTGGCCGAGA	0.202
TCCCGTTTAGTCATTGAGA	0.281
TCCCGCGTAGTTCGAGAGA	0.146
TCCCATAAAGTGGTGGAGA	0.241
TCCCCTCGAGTGATTGAGA	0.244
TCCCACCGAGTGTGCGAGA	0.194
TCCCTACGAGTCCTCGAGA	1.14
TCCCGAGAAGTCAGAGAGA	0.212
TCCCATGGAGTTGGTGAGA	0.227
TCCCCATTAGTGCACGAGA	0.187
TCCCGTCTAGTGTTGGAGA	0.132

Sequence	TetR repression strength
TCCCTAAGAGTATAGGAGA	0.338
TCCCCGAAAGTGACCGAGA	1.21
TCCCGCAGAGTATGTGAGA	0.171
TCCCCGGAAGTATGGGAGA	0.228
TCCCACGAAGTAGGGGAGA	0.104
TCCCAATGAGTGATAGAGA	0.685
TCCCGGGCAGTCTGAGAGA	0.179
TCCCCACTAGTTGTTGAGA	0.294
TCCCGATGAGTCGCTGAGA	0.0346
TCCCTGTTAGTGCTCGAGA	1.15
TCCCAGTAAGTTAGGGAGA	0.136
TCCCGCACAGTTCTGGAGA	0.187
TCCCCCTTAGTTAACGAGA	0.349
TCCCCGCGAGTCGGTGAGA	0.118
TCCCCGTCAGTGCCTGAGA	0.436
TCCCGGGGAGTGTTAGAGA	0.247
TCCCTCGGAGTGTGGGAGA	0.27
TCCCCGCTAGTTGTGGAGA	0.132
TCCCGAATAGTGTACGAGA	0
TCCCATATAGTTACGGAGA	0.112
TCCCTCCAAGTTGCTGAGA	0.207
TCCCGCCAAGTTAGCGAGA	0.296
TCCCGCAGAGTGAAGGAGA	0.396
TCCCCCCCAGTAAGCGAGA	0.291
TCCCTTCGAGTGCTGGAGA	0.513
TCCCCACAAGTCGCTGAGA	0.347

Sequence	TetR repression strength
TCCCGTGGAGTGCTAGAGA	0.292
TCCCGGTGAGTGGGAGAGA	0.238
TCCCGTGAAGTGTTGGAGA	0.294
TCCCTCCGAGTCTGGGAGA	0.233
TCCCATTAAGTGGAGGAGA	0.573
TCCCCGGGAGTGAGGGAGA	0.13
TCCCAAAAAGTTCAGGAGA	0.239
TCCCTTGTAGTATTAGAGA	0.283
TCCCGGGGAGTGCTAGAGA	0.198
TCCCGGGGAGTGGAAGAGA	0.175
TCCCTATCAGTACCTGAGA	0.867
TCCCACCCAGTTAGGGAGA	0.269
TCCCCGTAAGTCGCGGAGA	0.207
TCCCTCGGAGTGCATGAGA	0.122
TCCCACCGAGTATCAGAGA	0.277
TCCCTTGAAGTCAGTGAGA	0.236
TCCCGCAGAGTGACTGAGA	0.248
TCCCAATGAGTGATCGAGA	0.329
TCCCTGACAGTATATGAGA	0.149
TCCCTTGTAGTCTGAGAGA	0.283
TCCCATTGAGTAGTCGAGA	0.244
TCCCTATTAGTAGCTGAGA	0.207
TCCCTACGAGTACTCGAGA	0.207
TCCCAGGCAGTGTCAGAGA	0.2
TCCCAATAAGTGTGCGAGA	0.242
TCCCAGCGAGTATCGGAGA	0.447

Sequence	TetR repression strength
TCCCGTAGAGTACTAGAGA	0.353
TCCCTACGAGTTGGTGAGA	0.02
TCCCAAAAAGTTTGTGAGA	0.273
TCCCATTCAGTCGCAGAGA	0.291
TCCCTGCAAGTCGTCGAGA	0.434
TCCCTAAGAGTGGACGAGA	0.329
TCCCGGGTAGTGGTGGAGA	0.277
TCCCGCAGAGTAACAGAGA	0.304
TCCCGGTGAGTCCAAGAGA	0.367
TCCCGCTTAGTGCTGGAGA	0.102
TCCCTACGAGTATGGGAGA	0.0752
TCCCAACTAGTGATGGAGA	0.165
TCCCAGGCAGTATTTGAGA	0.27
TCCCACCTAGTCTGGGAGA	0.201
TCCCTGCCAGTGAACGAGA	0.276
TCCCATGAAGTGAGCGAGA	0.255
TCCCAAGGAGTGGCAGAGA	0.228
TCCCCTGAAGTCTAAGAGA	0.207
TCCCTGGGAGTGGTGGAGA	0.188
TCCCTTGTAGTCCGGGAGA	0.387
TCCCCATAAGTGTACGAGA	0.319
TCCCATGTAGTCTGGGAGA	0.403
TCCCTAAAAGTTGGTGAGA	0.259
TCCCGCCTAGTTGGAGAGA	0.272
TCCCCATTAGTAGATGAGA	0.278
TCCCCTTCAGTAGGCGAGA	0.244

Sequence	TetR repression strength
TCCCTACAAGTCTGGGAGA	0.31
TCCCTCGGAGTGGTCGAGA	0.217
TCCCCGCCAGTTAGCGAGA	0.12
TCCCTCTAAGTCTACGAGA	0.343
TCCCGATAAGTTGGAGAGA	0.175
TCCCTCAAAGTCGCGGAGA	0.227
TCCCGGGTAGTTGGCGAGA	0.479
TCCCGCCCAGTAGCTGAGA	0.41
TCCCGGAGAGTACACGAGA	0.0942
TCCCAGAGAGTCACGGAGA	0.234
TCCCGCGTAGTGTTTGAGA	0.622
TCCCTATAAGTCGGCGAGA	0.286
TCCCAAGGAGTATCGGAGA	0.131
TCCCTGACAGTCTGCGAGA	0.287
TCCCAACGAGTTGGGGAGA	0.0864
TCCCTACGAGTGCACGAGA	0.104
TCCCATGTAGTACCGGAGA	0.095
TCCCCTAGAGTCGCAGAGA	0.264
TCCCCGATAGTTTCCGAGA	0.332
TCCCGCACAGTGACGGAGA	0.117
TCCCAGCGAGTTTTTGAGA	0.643
TCCCTATAAGTTTCGGAGA	0.3
